According to US20250057968A1, “ANTI-DLL3 ANTIBODY AND PHARMACEUTICAL USE THEREOF, AND ANTIBODY-DRUG CONJUGATE CONTAINING ANTI-DLL3 ANTIBODY” (Jiangsu Hengrui Pharmaceuticals Co., Ltd., priority 2021, published 2025):

T1: human DLL3 (Homo sapiens, UniProt Q9NYJ7)
T1 construct: purchased ACRO DLL3-H52H4
T1 sequence (Q9NYJ7 27-492 limits assumed): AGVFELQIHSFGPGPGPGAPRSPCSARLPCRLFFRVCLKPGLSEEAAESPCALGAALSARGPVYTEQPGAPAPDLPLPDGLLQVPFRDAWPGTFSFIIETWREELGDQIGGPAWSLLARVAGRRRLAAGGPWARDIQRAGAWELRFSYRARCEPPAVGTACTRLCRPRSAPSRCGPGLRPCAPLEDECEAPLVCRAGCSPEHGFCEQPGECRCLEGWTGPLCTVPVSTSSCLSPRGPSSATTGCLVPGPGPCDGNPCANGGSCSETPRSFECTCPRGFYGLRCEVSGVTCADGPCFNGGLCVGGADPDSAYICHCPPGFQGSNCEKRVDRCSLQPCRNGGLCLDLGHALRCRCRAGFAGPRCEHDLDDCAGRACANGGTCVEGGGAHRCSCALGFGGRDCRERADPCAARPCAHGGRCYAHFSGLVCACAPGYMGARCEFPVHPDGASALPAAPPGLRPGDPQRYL


molecular target: T1, human DLL3; experiment: Biacore antibody affinity assay, human DLL3; type: binding
Text: Test antibodies were affinity-captured with a Protein A biosensor chip (Cat. #29127556, Cytiva) for 18 seconds, and then the antigens human DLL3 (ACRO, DLL3-H52H4), cynomolgus monkey DLL3 (KACTUS, DLL-RM103), and mouse DLL3 (KACTUS, DLL-MM103) were allowed to flow over the surface of the chip for 180 seconds, followed by 600 seconds of dissociation. Reaction signals were detected in real time using a Biacore 8K (Cytiva) instrument to obtain association and dissociation curves. After the dissociation in each experimental cycle, the biosensor chip was washed and regenerated with a 10 mM glycine-hydrochloric acid solution (pH 1.5) (Cat. #BR-1003-54, Cytiva). A 1:1 model was fit to the data. The results are shown in Table 12-1, Table 12-2, and Table 12-3.

Row | ka [M⁻¹ s⁻¹] | kd [s⁻¹] | Molecule
1 | 572000 | 0.000629 | hAb100L2H1: humanized antibody of mAb100: hAb100VH1 (SEQ ID NO: 50) + hAb100VL2 (SEQ ID NO: 56), constant regions SEQ ID NO: 28/29 (antibody) heavy: EVQLVESGGGLVKPGGSLRLSCAASGFTFSDSGMHWIRQAPGKGLEWVSYISSGSSTIHYADTVKGRFTISRDNAKNSLYLQMNSLRAEDTAVYYCASPLYYYGRSYNAVAYWGQGTTVTVSS[human IgG1 constant region not written out] light: DIQMTQSPSSLSASVGDRVTITCHASQNINVWLSWYQQKPGKIPKLLIYKASDLHTGVPSRFSGSGSGTDFTLTISSLQPEDVATYYCQQGQSYPLTFGGGTKVEIKRTVAAPSVFIFPPSDEQLKSGTASVVCLLNNFYPREAKVQWKVDNALQSGNSQESVTEQDSKDSTYSLSSTLTLSKADYEKHKVYACEVTHQGLSSPVTKSFNRGEC
2 | 832000 | 0.000352 | hAb100L1H3: humanized antibody of mAb100: hAb100VH3 (SEQ ID NO: 52) + hAb100VL1 (SEQ ID NO: 55), constant regions SEQ ID NO: 28/29 (antibody) heavy: EVQLVESGGGLVKPGGSLRLSCAASGFTFSDSGMHWIRQAPGKGLEWVAYISSGSSTIHYADTVKGRFTISRDNAKNSLYLQMNSLRAEDTAVYYCASPLYHYGRSYNAVAYWGQGTTVTVSS[human IgG1 constant region not written out] light: DIQMTQSPSSLSASVGDRVTITCHASQNINVWLSWYQQKPGKVPKLLIYKASDLHTGVPSRFSGSGSGTDFTLTISSLQPEDVATYYCQQGQSYPLTFGGGTKVEIKRTVAAPSVFIFPPSDEQLKSGTASVVCLLNNFYPREAKVQWKVDNALQSGNSQESVTEQDSKDSTYSLSSTLTLSKADYEKHKVYACEVTHQGLSSPVTKSFNRGEC
3 | 348000 | 0.000254 | hAb100L1H4: humanized antibody of mAb100: hAb100VH4 (SEQ ID NO: 53) + hAb100VL1 (SEQ ID NO: 55), constant regions SEQ ID NO: 28/29 (antibody) heavy: EVQLVESGGGLVKPGGSLRLSCAASGFTFSDSGMHWIRQAPGKGLEWVAYISSGSSTIHYADTVKGRFTISRDNAKNSLYLQMNSLRAEDTAVYYCASPLYYYGRSYNGVAYWGQGTTVTVSS[human IgG1 constant region not written out] light: DIQMTQSPSSLSASVGDRVTITCHASQNINVWLSWYQQKPGKVPKLLIYKASDLHTGVPSRFSGSGSGTDFTLTISSLQPEDVATYYCQQGQSYPLTFGGGTKVEIKRTVAAPSVFIFPPSDEQLKSGTASVVCLLNNFYPREAKVQWKVDNALQSGNSQESVTEQDSKDSTYSLSSTLTLSKADYEKHKVYACEVTHQGLSSPVTKSFNRGEC

More lines, now with the values behind:

Row | Molecule | ka [M⁻¹ s⁻¹] | kd [s⁻¹]
4 | hAb6L2H2: humanized antibody of mAb6: hAb6VH2 (SEQ ID NO: 33) + hAb6VL2 (SEQ ID NO: 46), constant regions SEQ ID NO: 28/29 (antibody) heavy: EVQLVQSGAEVKKPGASVKVSCKASGYTFTDYYMNWVRQAPGQRLEWMGIINPYSGVTIYNHKFKGRVTLTVDKSANTAYMELSSLRSEDTAVYYCARQDSLLDYAMDYWGQGTTVTVSS[human IgG1 constant region not written out] light: DIQMTQSPSSLSASVGDRVTITCHASQGISGNMGWLQQKPGKAPKGLIYHGANLEDGVPSRFSGSGSGADYTLTISSLQPEDFATYYCVQYAQFPYTFGGGTKVEIKRTVAAPSVFIFPPSDEQLKSGTASVVCLLNNFYPREAKVQWKVDNALQSGNSQESVTEQDSKDSTYSLSSTLTLSKADYEKHKVYACEVTHQGLSSPVTKSFNRGEC | 704000 | 0.00116
5 | hAb100L2H3: humanized antibody of mAb100: hAb100VH3 (SEQ ID NO: 52) + hAb100VL2 (SEQ ID NO: 56), constant regions SEQ ID NO: 28/29 (antibody) heavy: EVQLVESGGGLVKPGGSLRLSCAASGFTFSDSGMHWIRQAPGKGLEWVAYISSGSSTIHYADTVKGRFTISRDNAKNSLYLQMNSLRAEDTAVYYCASPLYHYGRSYNAVAYWGQGTTVTVSS[human IgG1 constant region not written out] light: DIQMTQSPSSLSASVGDRVTITCHASQNINVWLSWYQQKPGKIPKLLIYKASDLHTGVPSRFSGSGSGTDFTLTISSLQPEDVATYYCQQGQSYPLTFGGGTKVEIKRTVAAPSVFIFPPSDEQLKSGTASVVCLLNNFYPREAKVQWKVDNALQSGNSQESVTEQDSKDSTYSLSSTLTLSKADYEKHKVYACEVTHQGLSSPVTKSFNRGEC | 404000 | 0.000268
6 | hAb100L2H4: humanized antibody of mAb100: hAb100VH4 (SEQ ID NO: 53) + hAb100VL2 (SEQ ID NO: 56), constant regions SEQ ID NO: 28/29 (antibody) heavy: EVQLVESGGGLVKPGGSLRLSCAASGFTFSDSGMHWIRQAPGKGLEWVAYISSGSSTIHYADTVKGRFTISRDNAKNSLYLQMNSLRAEDTAVYYCASPLYYYGRSYNGVAYWGQGTTVTVSS[human IgG1 constant region not written out] light: DIQMTQSPSSLSASVGDRVTITCHASQNINVWLSWYQQKPGKIPKLLIYKASDLHTGVPSRFSGSGSGTDFTLTISSLQPEDVATYYCQQGQSYPLTFGGGTKVEIKRTVAAPSVFIFPPSDEQLKSGTASVVCLLNNFYPREAKVQWKVDNALQSGNSQESVTEQDSKDSTYSLSSTLTLSKADYEKHKVYACEVTHQGLSSPVTKSFNRGEC | 652000 | 0.000655
7 | M100CHI: anti-DLL3 chimeric antibody: mAb100 variable regions, human IgG1 (SEQ ID NO: 28) and κ (SEQ ID NO: 29) constant regions (antibody) heavy: EVQLVESGGGLVKPGGSLKLSCAASGFTFSDSGMHWIRQAPEKGLEWVAYISSGSSTIHYADTVKGRFTISRDNAKNTLFLQMTSLRSEDTAMYYCASPLYYYGRSYNAVAYWGQGTSVTVSS[human IgG1 constant region not written out] light: DIQMNQSPSSLSASLGDTITITCHASQNINVWLSWYQQKPGNIPKLLIYKASDLHTGVPSRFSGSGSGTGFTLTISSLQPEDIATYYCQQGQSYPLTFGGGTKLEIKRTVAAPSVFIFPPSDEQLKSGTASVVCLLNNFYPREAKVQWKVDNALQSGNSQESVTEQDSKDSTYSLSSTLTLSKADYEKHKVYACEVTHQGLSSPVTKSFNRGEC | 1.03e+06 | 0.000546
8 | hAb100L2H2: humanized antibody of mAb100: hAb100VH2 (SEQ ID NO: 51) + hAb100VL2 (SEQ ID NO: 56), constant regions SEQ ID NO: 28/29 (antibody) heavy: EVQLVESGGGLVKPGGSLRLSCAASGFTFSDSGMHWIRQAPGKGLEWVAYISSGSSTIHYADTVKGRFTISRDNAKNSLYLQMNSLRAEDTAVYYCASPLYYYGRSYNAVAYWGQGTTVTVSS[human IgG1 constant region not written out] light: DIQMTQSPSSLSASVGDRVTITCHASQNINVWLSWYQQKPGKIPKLLIYKASDLHTGVPSRFSGSGSGTDFTLTISSLQPEDVATYYCQQGQSYPLTFGGGTKVEIKRTVAAPSVFIFPPSDEQLKSGTASVVCLLNNFYPREAKVQWKVDNALQSGNSQESVTEQDSKDSTYSLSSTLTLSKADYEKHKVYACEVTHQGLSSPVTKSFNRGEC | 848000 | 0.00037
9 | hAb100L1H2: humanized antibody of mAb100: hAb100VH2 (SEQ ID NO: 51) + hAb100VL1 (SEQ ID NO: 55), constant regions SEQ ID NO: 28/29 (antibody) heavy: EVQLVESGGGLVKPGGSLRLSCAASGFTFSDSGMHWIRQAPGKGLEWVAYISSGSSTIHYADTVKGRFTISRDNAKNSLYLQMNSLRAEDTAVYYCASPLYYYGRSYNAVAYWGQGTTVTVSS[human IgG1 constant region not written out] light: DIQMTQSPSSLSASVGDRVTITCHASQNINVWLSWYQQKPGKVPKLLIYKASDLHTGVPSRFSGSGSGTDFTLTISSLQPEDVATYYCQQGQSYPLTFGGGTKVEIKRTVAAPSVFIFPPSDEQLKSGTASVVCLLNNFYPREAKVQWKVDNALQSGNSQESVTEQDSKDSTYSLSSTLTLSKADYEKHKVYACEVTHQGLSSPVTKSFNRGEC | 781000 | 0.000365
